Test results as given in the antibiotic and cytotoxicity screens of Wong et al. (2023).
This is one part of the list.

What follows are molecules tested on HepG2 (assay: cytotoxicity call (relative viability < 0.9)). Settings: 10 µM.

Which cytotoxicity call does the source give for `Cc1noc(C)c1NC(=O)N(C)C[C@@H]1Oc2ccc(NS(=O)(=O)c3ccccc3)cc2C(=O)N([C@@H](C)CO)C[C@@H]1C` here?
Its cytotoxicity call is “inactive”.

How did the cytotoxicity call turn out when `Cc1ccc(S(=O)(=O)N2C[C@@H](O)COC[C@H]3O[C@H](CC(=O)NCc4ccccc4Cl)CC[C@@H]32)cc1` was run?
Its cytotoxicity call is “inactive”.

With `C[C@@H]1CN([C@@H](C)CO)C(=O)c2cc(C#CC3(O)CCCC3)cnc2O[C@H]1CN(C)C(=O)Nc1ccc2c(c1)OCO2` as the molecule, how does the cytotoxicity call read?
The cytotoxicity call was “inactive”.

How did the cytotoxicity call turn out when `COC(=O)C[C@H]1CC[C@@H](N)[C@H](CO)O1` was run?
Its cytotoxicity call is “inactive”.

With `Cc1noc(C)c1NC(=O)Nc1ccc2c(c1)C(=O)N([C@@H](C)CO)C[C@@H](C)[C@H](CN(C)C(=O)NC1CCCCC1)OCCCC[C@@H](C)O2` as the molecule, how does the cytotoxicity call read?
The cytotoxicity call was “inactive”.

How did the cytotoxicity call turn out when `CCn1c2c(ccc1=O)C[C@H](N)CC2` was run?
The cytotoxicity call was “inactive”.

Which cytotoxicity call does the source give for `COc1ccc(NC(=O)Nc2ccc3c(c2)C(=O)N([C@@H](C)CO)C[C@H](C)[C@H](CN(C)Cc2ccc(Oc4ccccc4)cc2)O3)cc1` here?
The cytotoxicity call was “inactive”.

With `O=C(O)C[C@@H]1CC[C@H]2[C@@H](COC[C@@H](O)CN2S(=O)(=O)c2ccc(F)cc2)O1` as the molecule, how does the cytotoxicity call read?
Its cytotoxicity call is “inactive”.

Which cytotoxicity call does the source give for `Cn1cnc(S(=O)(=O)N[C@H]2CC[C@H](CC(=O)N3CCN(c4ccccc4)CC3)O[C@@H]2CO)c1` here?
Its cytotoxicity call is “inactive”.

`COc1ccc(NC(=O)N(C)C[C@@H]2OCCCC[C@H](C)Oc3ccc(NC(=O)Nc4c(C)noc4C)cc3C(=O)N([C@@H](C)CO)C[C@H]2C)cc1` was tested. Which cytotoxicity call did it give?
Its cytotoxicity call is “inactive”.

Which cytotoxicity call does the source give for `C[C@@H]1CN([C@H](C)CO)C(=O)c2cc(C#CCN(C)C)cnc2O[C@@H]1CN(C)Cc1cccc(C(=O)O)c1` here?
Its cytotoxicity call is “inactive”.

For `O[C@@H]1[C@@H](O)[C@H](Nc2ccccc2)OC[C@H]1O`, which cytotoxicity call is on record?
Its cytotoxicity call is “inactive”.

For `C[C@@H]1CN([C@@H](C)CO)S(=O)(=O)c2ccc(C#CC3CC3)cc2O[C@@H]1CN(C)C(=O)Cc1ccncc1`, which cytotoxicity call is on record?
The cytotoxicity call was “inactive”.

How did the cytotoxicity call turn out when `C[C@@H]1CN([C@H](C)CO)C(=O)c2cc(NC(=O)CCC(F)(F)F)ccc2O[C@@H](C)CCCCO[C@@H]1CN(C)C(=O)CCC(F)(F)F` was run?
The cytotoxicity call was “inactive”.

For `C[C@H](CO)N1C[C@H](C)[C@H](CN(C)C(=O)C2CCC2)Oc2cc(-c3ccc(C(=O)N(C)C)cc3)ccc2S1(=O)=O`, which cytotoxicity call is on record?
Its cytotoxicity call is “inactive”.

For `C/C=C/c1ccc2c(c1)O[C@@H](CN(C)S(=O)(=O)c1ccc(F)cc1)[C@@H](C)CN([C@H](C)CO)S2(=O)=O`, which cytotoxicity call is on record?
The cytotoxicity call was “inactive”.

`O=C(C[C@H]1C[C@@H]2c3cc(NC(=O)C4CCOCC4)ccc3O[C@@H]2[C@H](CO)O1)NCCN1CCCCC1` was tested. Which cytotoxicity call did it give?
The cytotoxicity call was “inactive”.

`C[C@@H]1CN([C@H](C)CO)C(=O)c2cc(NC(=O)Nc3cccc4ccccc34)ccc2O[C@@H](C)CCCCO[C@H]1CN(C)S(=O)(=O)c1ccccc1` was tested. Which cytotoxicity call did it give?
The cytotoxicity call was “inactive”.

`COc1ccc(CN(C)C[C@H]2OCCCC[C@H](C)Oc3ccc(NS(=O)(=O)c4ccc(F)cc4)cc3C(=O)N([C@H](C)CO)C[C@@H]2C)cc1` was tested. Which cytotoxicity call did it give?
Its cytotoxicity call is “inactive”.

How did the cytotoxicity call turn out when `C[C@@H]1CN([C@H](C)CO)C(=O)Cc2cc(NC(=O)Nc3cccc4ccccc34)ccc2O[C@@H]1CN(C)Cc1ccc(Oc2ccccc2)cc1` was run?
Its cytotoxicity call is “active”.

For `Cc1noc(C)c1NC(=O)N(C)C[C@H]1Oc2ccc(NC(=O)CCCN(C)C)cc2C(=O)N([C@H](C)CO)C[C@H]1C`, which cytotoxicity call is on record?
The cytotoxicity call was “inactive”.

How did the cytotoxicity call turn out when `COCCOC(=O)N1C(=O)[C@@]2(c3ccccc31)[C@H](c1ccc(OCCO)cc1)N1[C@H](c3ccccc3)[C@H](c3ccccc3)OC(=O)[C@H]1[C@@H]2C(=O)Nc1nc2ccccc2s1` was run?
Its cytotoxicity call is “inactive”.

For `CC(=O)N1CCO[C@H]2CCN(C(=O)c3cn(C)cn3)C[C@H]21`, which cytotoxicity call is on record?
The cytotoxicity call was “inactive”.

For `C=CCOC(=O)[C@H]1[C@@H]2C(=O)O[C@@H](c3ccccc3)[C@@H](c3ccccc3)N2[C@@H](c2ccc(OCCOC(=O)[C@@H]3C[C@@H]4C(=O)N[C@@H](CCCC[N+](C)(C)C)C(=O)N4[C@@H]3c3cccc(OCCO)c3)cc2)[C@]12C(=O)Nc1ccc(I)cc12`, which cytotoxicity call is on record?
Its cytotoxicity call is “inactive”.

Which cytotoxicity call does the source give for `C[C@@H]1CN([C@H](C)CO)C(=O)Cc2cc(NS(=O)(=O)c3cccs3)ccc2O[C@@H]1CN(C)CC1CC1` here?
Its cytotoxicity call is “inactive”.

How did the cytotoxicity call turn out when `C[C@H]1CN([C@@H](C)CO)C(=O)Cc2cc(NC(=O)Nc3ccc(C(F)(F)F)cc3)ccc2O[C@H]1CN(C)S(=O)(=O)c1ccc(Cl)cc1` was run?
Its cytotoxicity call is “active”.

Which cytotoxicity call does the source give for `C[C@@H]1O[C@@H](O[C@@H]2[C@@H](O)[C@H](O)[C@@H](CO)O[C@H]2c2c(O)cc3oc(-c4ccc(O)cc4)cc(=O)c3c2O)[C@H](O)[C@H](O)[C@H]1O` here?
The cytotoxicity call was “inactive”.

With `O=C(C[C@H]1C[C@H]2c3cc(NC(=O)NC4CCCC4)ccc3O[C@H]2[C@@H](CO)O1)NCc1ccc2c(c1)OCO2` as the molecule, how does the cytotoxicity call read?
Its cytotoxicity call is “inactive”.

Which cytotoxicity call does the source give for `C[C@@H]1CN([C@@H](C)CO)S(=O)(=O)c2ccc(-c3cccnc3)cc2O[C@H]1CN(C)C(=O)NC1CCCC1` here?
The cytotoxicity call was “inactive”.

With `COc1ccc(S(=O)(=O)N(C)C[C@H]2Oc3ccc(NC(=O)Nc4c(C)noc4C)cc3CC(=O)N([C@@H](C)CO)C[C@@H]2C)cc1` as the molecule, how does the cytotoxicity call read?
The cytotoxicity call was “inactive”.

`C[C@@H]1CN([C@H](C)CO)C(=O)Cc2cc(NC(=O)Cn3cnnn3)ccc2O[C@H]1CN(C)Cc1ccc(-c2ccccc2)cc1` was tested. Which cytotoxicity call did it give?
The cytotoxicity call was “inactive”.

`CN1C(=O)c2cc(NC(=O)c3cnccn3)ccc2OC[C@H]2O[C@@H](CC(=O)N[C@@H]3CCN(Cc4ccccc4)C3)CC[C@H]21` was tested. Which cytotoxicity call did it give?
Its cytotoxicity call is “inactive”.

Which cytotoxicity call does the source give for `C[C@@H]1CCCCO[C@H](CN(C)S(=O)(=O)c2cccs2)[C@@H](C)CN([C@H](C)CO)C(=O)c2cc(NC(=O)c3ccccc3)ccc2O1` here?
The cytotoxicity call was “inactive”.

`C[C@@H]1CCCCO[C@H](CN(C)S(=O)(=O)c2ccc(Cl)cc2)[C@@H](C)CN([C@@H](C)CO)C(=O)c2cc(NC(=O)Nc3ccc(C(F)(F)F)cc3)ccc2O1` was tested. Which cytotoxicity call did it give?
Its cytotoxicity call is “inactive”.

`CS(=O)(=O)N1C[C@H](O)COC[C@@H]2O[C@@H](CC(=O)NCCc3ccncc3)CC[C@H]21` was tested. Which cytotoxicity call did it give?
Its cytotoxicity call is “inactive”.

`CS(=O)(=O)Nc1ccc([N+](=O)[O-])cc1Oc1ccccc1` was tested. Which cytotoxicity call did it give?
The cytotoxicity call was “inactive”.

How did the cytotoxicity call turn out when `CC(=O)n1cc([C@@H]2C=C(C(=O)N3CCOCC3)O[C@H](OCCCCOC(=O)NCCCCCC(=O)NO)C2)c2ccccc21` was run?
Its cytotoxicity call is “inactive”.

How did the cytotoxicity call turn out when `C[C@@H]1CN([C@H](C)CO)C(=O)c2cc(NS(=O)(=O)c3ccc(Cl)cc3)ccc2O[C@H]1CN(C)Cc1ccc(-c2ccccc2)cc1` was run?
Its cytotoxicity call is “inactive”.

How did the cytotoxicity call turn out when `C[C@@H]1CN([C@H](C)CO)C(=O)c2cc(NC(=O)c3ccncc3)ccc2O[C@@H]1CN(C)Cc1ccncc1` was run?
The cytotoxicity call was “inactive”.

How did the cytotoxicity call turn out when `C[C@@H]1CN([C@H](C)CO)C(=O)c2cc(NC(=O)Cc3ccccc3)ccc2O[C@@H]1CN(C)Cc1ccc(C(F)(F)F)cc1` was run?
Its cytotoxicity call is “inactive”.
